The whole screen tested about 310,000 compounds, of which about 14,000 (4.5%) showed an effect of 50% or more. Effects have a minus sign here. This is one part of the list.
target: human ether-à-go-go-related gene (hERG) potassium channel (human, UniProt Q12809); test: primary screen, population patch clamp on CHO cells stably expressing hERG
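Also: peak tail current of the secondary pulse compared with the same well before compound.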

human ether-à-go-go-related gene (hERG) potassium channel, sequence (Q12809 whole entry, looked up): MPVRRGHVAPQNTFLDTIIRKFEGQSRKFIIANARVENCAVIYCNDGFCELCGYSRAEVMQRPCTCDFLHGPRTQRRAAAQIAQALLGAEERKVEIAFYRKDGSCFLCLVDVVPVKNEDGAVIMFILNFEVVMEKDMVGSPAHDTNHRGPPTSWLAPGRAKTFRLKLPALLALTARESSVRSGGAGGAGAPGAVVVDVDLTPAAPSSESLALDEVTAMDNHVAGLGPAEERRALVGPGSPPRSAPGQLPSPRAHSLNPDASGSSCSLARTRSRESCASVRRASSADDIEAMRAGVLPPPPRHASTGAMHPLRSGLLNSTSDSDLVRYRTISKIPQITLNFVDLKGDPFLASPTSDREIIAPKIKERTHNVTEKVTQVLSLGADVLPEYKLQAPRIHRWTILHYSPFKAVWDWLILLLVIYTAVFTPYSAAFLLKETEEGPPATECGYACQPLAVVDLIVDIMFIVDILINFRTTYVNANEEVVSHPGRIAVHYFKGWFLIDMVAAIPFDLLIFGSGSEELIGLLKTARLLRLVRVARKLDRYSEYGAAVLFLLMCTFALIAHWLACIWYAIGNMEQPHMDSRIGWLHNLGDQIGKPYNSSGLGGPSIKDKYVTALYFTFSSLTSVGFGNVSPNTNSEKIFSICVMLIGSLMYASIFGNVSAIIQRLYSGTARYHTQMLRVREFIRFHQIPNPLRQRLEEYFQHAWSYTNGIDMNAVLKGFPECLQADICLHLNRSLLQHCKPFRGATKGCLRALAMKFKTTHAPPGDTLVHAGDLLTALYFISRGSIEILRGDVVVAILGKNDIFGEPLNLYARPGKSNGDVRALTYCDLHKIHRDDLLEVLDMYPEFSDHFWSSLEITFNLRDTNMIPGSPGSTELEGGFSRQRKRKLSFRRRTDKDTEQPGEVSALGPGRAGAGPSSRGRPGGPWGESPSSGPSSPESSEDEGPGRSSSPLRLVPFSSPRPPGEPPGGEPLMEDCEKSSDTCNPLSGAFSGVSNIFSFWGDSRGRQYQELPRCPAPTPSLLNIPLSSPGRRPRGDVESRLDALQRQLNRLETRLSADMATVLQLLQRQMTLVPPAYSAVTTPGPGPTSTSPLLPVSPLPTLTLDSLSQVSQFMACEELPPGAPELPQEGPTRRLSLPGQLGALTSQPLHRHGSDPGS

| Compound | hERG current change (%, negative = inhibition) at 10uM [%] |
| --- | --- |
| O=S(=O)(Nc1ccccc1N1CCOCC1)c1ccc(F)c(Cl)c1 | -18.6 |
| Cc1ccc2nc(SCC(=O)Nc3ccc(F)cc3)nc(=O)n2c1 | -43 |
| Cc1cccc(NC(=O)CNC(=O)c2ccccc2Cl)n1 | 3.81 |
| CC[C@H]1OC(=O)[C@H](C)[C@@H](O[C@H]2C[C@@](C)(OC)[C@@H](O)[C@H](C)O2)[C@H](C)[C@@H](O[C@@H]2O[C@H](C)C[C@H](N(C)C)[C@H]2O)[C@](C)(OC)C[C@@H](C)C(=O)[C@H](C)[C@@H](O)[C@]1(C)O | 18.1 |
| CCOc1ccccc1N(CC(=O)Nc1ccc(OC)cc1OC)S(=O)(=O)c1ccccc1 | 14.6 |
| O=C(O)/C=C\C(=O)O | 8.4 |
| COc1ccc(NC(=S)N2CCc3cc(OC)c(OC)cc3C2)cc1 | 11.8 |
| Cc1ccc(NC(=O)CSCc2nc3c(nnn3Cc3ccc(F)cc3)c(=O)[nH]2)c(C)c1 | 8.78 |
| CN(Cc1cccnc1)C(=O)c1cc(COc2ccc3c(c2)CCCC3)on1 | -40.2 |
| C=CC[C@]12CCc3ccccc3C1N(c1ccc(C(=O)OCC)cc1)C2=O (stereo partly drawn) | 0.16 |
| CC(CNC(=O)c1cccs1)c1ccc([N+](=O)[O-])cc1 (stereo not drawn) | 4.3 |
| CC(C(=O)N1CCCC1)N1CCN(S(=O)(=O)c2ccc(C(C)(C)C)cc2)CC1 (stereo not drawn) | -30.9 |
| CC(=O)Nc1ccc(NC(=O)CSc2nncn2C)cc1 | 8.46 |
| Cc1nnc(C)c2c(C)n(Cc3ccc4c(c3)OCO4)c(C)c12 | -71.4 |
| O=C(CN1CCN(Cc2ccccc2)CC1)NCc1ccccc1Cl | -30.5 |
| Nc1cc(-c2ccc(Br)cc2)nn1S(=O)(=O)c1ccccc1 | 14.5 |
| CC/C(=N\NC(=O)c1ccc2c(c1)OCO2)C12CC3CC(CC(C3)C1)C2 | 14.6 |
| COc1ccc(OCC(O)CNS(=O)(=O)c2cccc(Cl)c2)cc1 (stereo not drawn) | -4.79 |
| COc1ccccc1C(C)NC(=O)Cc1ccsc1 (stereo not drawn) | 15.1 |
| CCc1ccc(S(=O)(=O)/N=C2\C=C(Nc3ccc(O)cc3)C(=O)c3ccccc32)cc1 | 13.8 |
| COc1ccc(OC)c(S(=O)(=O)N2CCCC2C(=O)NC(C)c2ccccc2)c1 (stereo not drawn) | 1.83 |
| O=C(Nc1ccccc1Cc1ccccc1)c1ccncc1 | 7.4 |

| Compound | hERG current change (%, negative = inhibition) at 10uM [%] |
| --- | --- |
| COc1ccc(C2/C(=C(/O)c3ccc(C)cc3)C(=O)C(=O)N2CC2CCCO2)cc1OC (stereo not drawn) | 20.8 |
| Clc1ccc(C[n+]2cc(-c3ccccc3)n3c2CCCCC3)c(Cl)c1.[Br-] | -74.4 |
| OCC1(CCc2ccccc2)CCN(Cc2c(F)ccc(F)c2F)CC1 | -36.9 |
| Cc1ccccc1NS(=O)(=O)c1ccc(F)cc1 | -2.75 |
| Cc1cc(C)n(C(=O)C2CCCN2S(=O)(=O)c2ccc(Cl)cc2)n1 (stereo not drawn) | -7.48 |
| COc1ccc(CCNC(=O)C(=O)N/N=C/c2cccs2)cc1OC | 17.2 |
| O=C1NC(=O)N(c2ccccc2)C(=O)/C1=C/C=C/c1ccco1 | 3.08 |
| CCCC(=O)Nc1ccc(-c2nc3cc(C)c(C)cc3o2)c(O)c1 | 5.12 |
| CC(C)(C)OC(=O)NCCNC(=O)c1cccs1 | 23.9 |
| O=C(Nc1ccncc1)C1CCN(S(=O)(=O)c2ccc(Cl)cc2)CC1 | -49.1 |
| O=C(O)C1C2CCC(O2)C1C(=O)Nc1cnn(Cc2ccccc2)c1 (stereo not drawn) | -20.5 |
| COc1ccc(OCC(=O)Nc2ccc(S(=O)(=O)N3CCCCCC3)cc2)cc1 | -2.71 |
| O=[N+]([O-])c1cc(C(F)(F)F)ccc1NCCc1c[nH]c2ccc(O)cc12 | 7.08 |
| COc1ccccc1Oc1cc(F)nc(N)n1 | 5.82 |
| O=C(O)CN1C(=O)SC(Nc2ccc(Cl)cc2)C1=O (stereo not drawn) | 14.1 |
| COc1ccc(-c2cn3c4c(sc3n2)CCCC4)cc1 | -28.3 |
| CC1=C(C(=O)NCc2ccccc2)C(c2cc(Br)cc(Br)c2OC(C)C)NC(=O)N1 (stereo not drawn) | -8.97 |
| COc1ccccc1C(=O)C1CCCN(C(=O)CN2CCCCC2=O)C1 (stereo not drawn) | 9.61 |
| CC(=O)Nc1ccc(S(=O)(=O)NCCS(=O)(=O)N2CCN(c3ccccc3)CC2)cc1 | 4.6 |
| CCN(CC)C(=O)Cc1c(O)c2ccccc2[nH]c1=O | 5.12 |
| Cc1cc(N2CCOCC2)nc2ccc(NC(=O)CCC(=O)N3CCCCC3)cc12 | -26.3 |
| O=C(NC(NCc1cccnc1)C(Cl)(Cl)Cl)c1cccc2ccccc12 (stereo not drawn) | -20.8 |

| Compound | hERG current change (%, negative = inhibition) at 10uM [%] |
| --- | --- |
| Cc1ccc2c(c1)C(=O)CC(O)(C(F)F)O2 (stereo not drawn) | 19.3 |
| CC1=C(C(=O)OCC2CCCO2)C(c2ccc(O)cc2)NC(=O)N1 (stereo not drawn) | -6.08 |
| CN(C)/C=C/C(=O)c1ccc2noc(-c3cccc(F)c3)c2c1 | -50.2 |
| c1ccc(-c2cnnc(SCc3cn4cccnc4n3)n2)cc1 | -12.8 |
| O=C(Nc1ccc(F)cc1)c1cc(S(=O)(=O)N2CCOCC2)cs1 | -11 |
| Cc1cccc(OCC(=O)Nc2cc(NC(=O)COc3cccc(C)c3)cc(C(=O)O)c2)c1 | 26.2 |
| N/C(=N\OC(=O)c1ccc2c(c1)OCO2)c1ccc(Cl)cc1 | -2.2 |
| O=C(NCCc1ccccc1)c1noc2c1CCc1ccccc1-2 | 5.03 |
| OC(CN1CCN(c2ccc(C(F)(F)F)cn2)CC1)c1ccccc1 (stereo not drawn) | -26.5 |
| Cc1ccc2[nH]c3c(=O)n(CCN4CCNCC4)cnc3c2c1 | 7.36 |
| Cn1c(=O)c2c(nc(N3CCc4ccccc4C3)n2Cc2ccc(Br)cc2)n(C)c1=O | 3.83 |
| CCOC(Cn1cc(C)c(=O)[nH]c1=O)OCC | -2.39 |
| COC(=O)C1=C(c2ccc(OCc3ccccc3)cc2)C[C@@H]2CC[C@H]1N2C(=O)NCCCc1ccccc1 | 7.71 |
| COc1ccc(CCN=C(N)NS(=O)(=O)c2ccc(OC)cc2)cc1 | 1.38 |
| COc1cc(CN2CC=C(c3ccc(F)cc3)CC2)cc(OC)c1 | -57.3 |
| COn1c(SCC(N)=O)nc2ccccc2c1=O | 5.75 |
| O=S(=O)(Nc1ccc(-n2cccc2)cc1)c1ccc(Cl)c(Cl)c1 | 8.73 |
| O=C(N/C(=C/c1cccs1)C(=O)N1CCCCCC1)c1ccccc1 | -21 |
| CC(C)(C)n1nnnc1C(c1ccc2ncccc2c1)N1CCSCC1 (stereo not drawn) | -18.1 |
| CCOc1ccc(CNS(=O)(=O)c2cccs2)cc1OCC | 21.2 |
| CCOC(=O)C1CCN(S(=O)(=O)c2ccc(OC)c(Cl)c2)CC1 | 9.79 |
| CCOC(=O)C(C)/C(C)=N\Nc1ccc([N+](=O)[O-])cc1[N+](=O)[O-] (stereo not drawn) | -53.2 |

| Compound | hERG current change (%, negative = inhibition) at 10uM [%] |
| --- | --- |
| O=C1CSC(c2ccccn2)N1c1ccc(Br)cc1 (stereo not drawn) | 2.79 |
| CCN1CCN(c2c(Cl)cccc2NC(=O)c2ccc3c(c2)OCCO3)CC1 | -38.4 |
| COCCN1Cc2cccc(C(=O)NC(C)c3cccs3)c2C1=O (stereo not drawn) | 5.63 |
| CCN(CC)S(=O)(=O)c1ccc(Cl)c(C(=O)NCCN2CCOCC2)c1.Cl | 4.2 |
| COc1ccccc1NC(=O)c1ccc2nc(C)c(C)nc2c1 | -16.1 |
| CCC1Oc2ccc(C)cc2N(CC(=O)NCCCN2CCCCC2C)C1=O (stereo not drawn) | 3.15 |
| COc1ccc2[nH]cc(/C=N/NS(=O)(=O)c3ccc(C)cc3)c2c1 | -5.27 |
| CCOC(=O)c1ccc(N/C=C2\CCCCC2=O)cc1 | 1 |
| CC(=O)C1=C(O)C(=O)N(c2ccc(O)cc2)C1c1cccc([N+](=O)[O-])c1 (stereo not drawn) | 23.7 |
| CN1C(=O)C(Cc2cccs2)C(=O)N(C)C1=O | 13.4 |
| O=C(CN1CCN(c2ccccc2)CC1)Nc1cccc([N+](=O)[O-])c1 | 2.69 |
| O=C(NCc1ccccn1)c1nn(-c2ccccc2)c(=O)c2ccccc12 | -8.15 |
| CC(C)CCC(C)NC(=O)CN1C(=O)NC(C)(c2ccc3ccccc3c2)C1=O (stereo not drawn) | 3.29 |
| CCN(CC(=O)Nc1c(F)cccc1F)C(=O)CSc1ccccc1 | 8.37 |
| COc1cc(C(=O)/C=C/c2cccnc2)ccc1O | -13 |
| C=CCN(C(=O)CSc1nc2c(sc3ccccc32)c(=O)n1CCN(CC)CC)c1ccccc1 | -77.4 |
| CCCOc1ccc(/C=C2/C(=O)ON=C2C)cc1OCC | 15.3 |
| CC(=O)N/C(=C/c1ccc([N+](=O)[O-])cc1)C(=O)O | 14.9 |
| CCN(CC)C1CCN(C(=O)c2cc(COc3ccc(F)cc3Cl)on2)C1 (stereo not drawn) | -70 |
| CCOc1ccccc1OCC(=O)N/N=C(\C)Cc1ccc(OC)cc1 | -14.8 |
| N=c1c2c(-c3ccccc3)c(-c3ccccc3)n(Cc3ccco3)c2ncn1CCCO | -68.5 |

— paper PMC4336329 (PLoS ONE, 2015)
